Measurements: article PMC4207660, “Identification and Characterization of Hundreds of Potent and Selective Inhibitors of Trypanosoma brucei Growth from a Kinase-Targeted Library Screening Campaign” (PLoS Neglected Tropical Diseases, 2014)
Read-outs that look alike come from different tables or passages of the source.

Tests used:
[1] = tested on: T. brucei brucei parasites (Lister 427 strain); test: Dose response growth inhibition assay (resazurin, 72 h); format: cell-based; settings: Trypanosoma brucei; T. b. brucei growth inhibition; read-out: Tbb pEC50 (converted)
Description: Greiner sterile black clear bottom 384-well assay plates were pre-dispensing with 200 nL of compound in each well, from master plates at 1 mM (100% DMSO) containing selection from the GSK compound collection. Controls of 0% response (control 1, 200 nL of 100%DMSO) and 100% response (control 2, 200 nL of 1 mM pentamidine) were included in each assay plate in columns 6 and 18, respectively. Plates containing 200 nL of 100% DMSO were included randomly in the assay, to assess quality through all process. […] After this period, 10 µL of 200 µM resazurin solution in prewarmed HMI-9 were added to each well, and plates were allowed to incubate 2 hours more prior fluorescence reading in a Wallac EnVision Multilabel Plate Reader (Perkin-Elmer). Raw fluorescent data from the Envision plate reader were uploaded into GSK HTS database (ActivityBase). Activity of each well was normalized as a percentage of inhibition per-plate basis using the following equation: [drawing 1]
For dose-response experiments, serial compound dilutions of selected hits from the primary campaign were plotted against compound concentration. Dose response master plates were prepared by 3-fold dilutions (starting with 10 mM DMSO stock solutions), providing 11 concentrations. From these master plates, 200 nL per well was stamped in final assay plates, including the same controls describe in the primary single shot assay. […]

Cytochrome P450 (CYP450) = Cytochrome P450 (CYP450) (Homo sapiens, UniProt P08684); test: Cytochrome P450 inhibition profile; format: in vitro ADME; settings: Measured
Description: The P450 inhibition profile of the inhibitors was determined as previously described.

[2] = CLND kinetic solubility assay; format: physicochemical; settings: phosphate buffered saline, pH 7.4, aqueous buffer, kinetic from dmso stock; Measured; read-out: Aq Sol
Description: 5 µL of 10 mM DMSO stock solution was diluted to 100 µL with pH 7.4 phosphate buffered saline, equilibrated for 1 hour at room temperature, filtered through Millipore MultiscreenHTS-PCF filter plates (MSSL BPC). The filtrate was quantified by suitably calibrated flow injection Chemi-Luminescent Nitrogen Detection.

[3] = target: T1, Human Serum Albumin (HSA) (Homo sapiens, UniProt P02768); test: Protein binding assay (HPLC stationary phase), HSA; format: in vitro ADME; settings: Measured
T1 construct: purchased Chiral Technologies, France
Description: Chemically bonded Human Serum Albumin (HSA) and Alpha-1-acidglycoprotein HPLC stationary phases (Chiral Technologies, France) were used for measuring compounds' binding to plasma proteins, applying linear gradient elution up to 30% iso-propanol. The run time was 6 min, including the re-equilibration of the stationary phases with the 50 mM pH7.4 ammonium acetate buffer. The obtained gradient retention times were standardised using a calibration set of mixtures as described in the references. The average standard error of the assay depends on the binding strength and kinetics of the compounds.

ChromlogD assay = test: ChromlogD assay
Description: The Chromatographic Hydrophobicity Index (CHI)[22] values were measured using reversed phase HPLC column (Luna C18 (2), Phenomenex, UK) with a fast acetonitrile gradient at starting mobile phase of pH = 7.4. CHI values are derived directly from the gradient retention times by using a calibration line obtained for standard compounds. The CHI value approximates to the volume % organic concentration when the compound elutes. […] The average error of the assay is ±3 CHI unit or ±0.25 ChromlogD.

[4] = CYP3A4, VR substrate, read-out: CYP3A4VR pXC50 (converted)

Row | Compound | EC50 [1] | IC50 (Cytochrome P450 (CYP450); CYP3A4, VG substrate, read-out: CYP3A4VG pXC50 (converted)) | IC50 (Cytochrome P450 (CYP450); [4]) | solubility kinetic at 1 h [2] | HSA % binding [3] | PFI (ChromlogD assay)
1 | Nc1nc(Nc2ccc(S(N)(=O)=O)cc2)sc1C(=O)c1c(F)cccc1F [NEU-0001158] | 398 nM | 1580 nM | 50100 nM |  |  | 
2 | Cc1occc1-c1ncc(O[C@H](CN)c2ccccc2)cc1-c1c[nH]c2ncccc12 [NEU-0001210] |  |  | 6.31 nM | ≥ 326 µM | 98.24% | 
3 | COc1cc(Nc2ncc3c(C)nc(-c4ccco4)n3n2)cc(OC)c1OC [NEU-0001195] | 50.1 nM |  |  |  |  | 8.15
